The campaign covered roughly 45,000 compounds. About 65 (0.1%) were called active. Calls follow the shape of the dose curve; as a rule, active = well fitted activation curve with a large enough effect; inconclusive = small, poorly fitted or top-dose-only effect; inactive = no such curve, though single readings can be large or run the other way. This is one part of the list.
Target: Galactocerebrosidase (Homo sapiens) (UniProt P54803)
Assay: A Novel Cell-Based Assay to Identify Small Molecules for B -Galactocerebrosidase; also: 0% is about no effect; nearly all actives have a fitted effect of over 65% in size
Conditions: 145M-Twi-hGALC-G270D cells, HMU-beta-Gal fluorescence, 48 h; series mostly up to 57.5 µM; activation: at the top concentration
How it was run: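 qHTS, 1536-well; 145M-Twi-hGALC-G270D cells (WT line also made) in DMEM/F12 + 10% FBS; compound incubation on live cells; HMU-β-gal 0.1 mM final, pH 5.2, NaTC; carbonate stop; fluorescence increase = enhanced residual activity.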

Sequence of UniProt P54803 (P54803 whole entry, looked up): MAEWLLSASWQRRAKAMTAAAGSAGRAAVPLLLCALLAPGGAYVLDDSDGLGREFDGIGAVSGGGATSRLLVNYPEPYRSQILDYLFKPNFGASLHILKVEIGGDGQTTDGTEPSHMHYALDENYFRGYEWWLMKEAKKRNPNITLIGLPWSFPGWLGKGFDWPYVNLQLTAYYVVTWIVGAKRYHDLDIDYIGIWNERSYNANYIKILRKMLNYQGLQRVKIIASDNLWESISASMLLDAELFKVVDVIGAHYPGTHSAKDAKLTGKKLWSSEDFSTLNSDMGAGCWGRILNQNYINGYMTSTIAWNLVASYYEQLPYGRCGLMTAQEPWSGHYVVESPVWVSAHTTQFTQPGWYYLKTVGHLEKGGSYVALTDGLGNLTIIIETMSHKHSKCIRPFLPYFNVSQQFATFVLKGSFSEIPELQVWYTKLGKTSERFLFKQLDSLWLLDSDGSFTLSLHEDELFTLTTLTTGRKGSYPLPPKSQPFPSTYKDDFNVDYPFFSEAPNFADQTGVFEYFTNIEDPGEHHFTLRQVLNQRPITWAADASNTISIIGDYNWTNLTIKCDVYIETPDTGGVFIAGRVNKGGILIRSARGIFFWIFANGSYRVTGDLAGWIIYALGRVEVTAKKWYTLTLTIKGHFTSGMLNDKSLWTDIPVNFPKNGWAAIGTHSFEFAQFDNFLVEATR

activation, inactive:
Cc1cccc(-c2nc(C)c(CCNC(=O)C(=O)Nc3cccc(Cl)c3C)s2)c1 -19.3%
O=C1CCC(N2C(=O)c3ccccc3C2=O)C(=O)N1 (configuration not stated) -19.7%
CCOc1ccc(N(C)C(=O)CS(=O)(=O)c2cccc3nsnc23)cc1 -20.9%
COC(=O)CSc1ncc2c(n1)-c1ccccc1N(Cc1ccccc1C)S2(=O)=O -5.01%
O=C1NCCN1CCN1CCC(c2cn(-c3ccc(F)cc3)c3ccc(Cl)cc23)CC1 -27.4%
CCC(=O)N1CCc2cc(S(=O)(=O)CCC(=O)Nc3ccc(OC(F)(F)F)cc3)ccc21 -14.4%
COc1ccc(CC(=O)Nc2sc3c(c2C(=O)Nc2cccc(Cl)c2)CCCCC3)cc1 -13.3%
COc1ccc2nc3oc(C(=O)N4CCN(c5cc(C)ccc5C)CC4)cc3cc2c1 4.17%
CC(C)Oc1ccc(CNC(=O)CCCN2C(=O)CCn3nc(-c4cccn4C)cc32)cc1 -9.84%
COc1ccccc1N1CCN(C(=O)C(CCSC)NS(=O)(=O)c2ccc3c(c2)oc(=O)n3C)CC1 (configuration not stated) 6.24%
CCc1ccc(NCc2cc3ccc(OC)cc3n(CC(=O)Nc3ccc(F)cc3F)c2=O)cc1 -16.9%
CCC(=O)N1c2ccccc2CC1C(=O)N1CCN(c2cccc(Cl)c2)CC1 (configuration not stated) -12.7%
O=C(c1ccco1)n1nc(-c2ccccc2)nc1NCc1ccc(Cl)cc1 -1.89%
Cc1nn(-c2ccccc2)c2c1N(CCCC(=O)NCc1ccc(N(C)C)cc1)C(=O)CS2 -17.3%
COc1cccc(CNS(=O)(=O)c2ccc3c(c2)CCN3C(=O)C2CCC2)c1 -2.39%
O=C(Nc1ccc(F)cc1)N1CCN(c2ccccc2F)CC1 -11.4%
Cc1nn2c(=O)cc(COC(=O)c3ccco3)nc2s1 -1.34%
COc1cccc(CNCCSc2nnnn2C)c1OCc1ccccc1Cl -3.82%
Cc1cc(Cl)ccc1OCC(=O)Nc1c(Cl)ccc2nsnc12 5.61%
O=C(NCc1cccs1)c1ccc(Cn2c(SCc3ccccc3)nc3cccnc32)cc1 -6.39%
O=C(Nc1c(C(=O)N2CCN(c3ccccc3)CC2)oc2ccccc12)c1ccc(Br)o1 -20.7%
CC(C)(C)CC(C)(C)c1ccc(O)c(-n2nc3ccccc3n2)c1 -15.8%
Cc1ccc(C)c(S(=O)(=O)c2nnn3c2nc(Nc2ccc(C)c(C)c2)c2sccc23)c1 -10.5%
O=C(CC(c1cccs1)N1Cc2ccccc2C1=O)Nc1ccc(F)c(F)c1 (configuration not stated) -14.6%
COc1ccc(N2C(=O)CS(=O)(=O)C23C(=O)N(Cc2cccc(F)c2)c2ccccc23)cc1OC (configuration not stated) -24.4%
Cc1cc(=O)[nH]c2nnc(SCc3ccc(F)cc3)n12 -16.6%
CCOC(=O)c1ccc(-n2c(CCC(=O)O)ccc2-c2ccc(Br)cc2)cc1 -8.29%

Reference: PubChem BioAssay AID1159614 (National Center for Advancing Translational Sciences (NCATS), 2016)
